# Measurements as given in publication PMC4336329 (PLoS ONE, 2015).
# Hit rate of the full screen: of about 310,000 compounds, about 14,000 (4.5%) showed an effect of 50% or more. The effect is printed as a negative number. This is one part of the list.
# Molecular target: human ether-à-go-go-related gene (hERG) potassium channel (human, UniProt Q12809)
# Assay: primary screen, population patch clamp on CHO cells stably expressing hERG
# 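Also: peak tail current of the secondary pulse compared with the same well before compound.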
# Sequence of human ether-à-go-go-related gene (hERG) potassium channel (Q12809 whole entry, looked up): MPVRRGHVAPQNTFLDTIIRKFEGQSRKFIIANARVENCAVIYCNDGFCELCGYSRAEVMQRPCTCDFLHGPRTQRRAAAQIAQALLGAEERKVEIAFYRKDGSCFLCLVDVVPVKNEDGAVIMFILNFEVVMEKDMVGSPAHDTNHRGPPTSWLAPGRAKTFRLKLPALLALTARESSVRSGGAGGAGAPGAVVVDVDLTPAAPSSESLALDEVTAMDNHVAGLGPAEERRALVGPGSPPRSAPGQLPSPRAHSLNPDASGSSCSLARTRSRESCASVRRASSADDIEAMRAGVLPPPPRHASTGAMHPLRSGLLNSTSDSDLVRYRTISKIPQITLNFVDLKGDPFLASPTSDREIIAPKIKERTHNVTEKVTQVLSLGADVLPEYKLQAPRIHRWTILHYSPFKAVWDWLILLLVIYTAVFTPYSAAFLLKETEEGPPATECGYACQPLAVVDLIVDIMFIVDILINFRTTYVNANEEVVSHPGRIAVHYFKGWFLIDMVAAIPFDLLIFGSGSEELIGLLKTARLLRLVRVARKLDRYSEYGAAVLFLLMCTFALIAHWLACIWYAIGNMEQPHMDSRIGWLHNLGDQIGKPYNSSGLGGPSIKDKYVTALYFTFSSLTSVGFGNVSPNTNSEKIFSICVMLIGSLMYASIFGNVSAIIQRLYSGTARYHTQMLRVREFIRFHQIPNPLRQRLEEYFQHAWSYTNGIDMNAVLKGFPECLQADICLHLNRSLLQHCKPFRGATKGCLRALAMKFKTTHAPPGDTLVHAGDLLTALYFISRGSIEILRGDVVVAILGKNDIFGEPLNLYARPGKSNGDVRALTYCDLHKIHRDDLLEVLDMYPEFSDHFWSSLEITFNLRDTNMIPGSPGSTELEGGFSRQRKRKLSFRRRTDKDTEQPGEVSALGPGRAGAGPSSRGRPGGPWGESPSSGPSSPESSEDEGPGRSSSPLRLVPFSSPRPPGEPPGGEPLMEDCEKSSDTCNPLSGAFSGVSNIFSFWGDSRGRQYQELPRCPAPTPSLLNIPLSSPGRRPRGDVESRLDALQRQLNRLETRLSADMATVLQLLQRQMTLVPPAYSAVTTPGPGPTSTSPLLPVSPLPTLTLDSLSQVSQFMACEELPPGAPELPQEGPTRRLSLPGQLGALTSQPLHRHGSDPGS
row,Structure (SMILES),"hERG current change (%, negative = inhibition) at 10uM [%]"
1,CC(C)(C)c1ccc(OCCON2C(=O)CCC2=O)c(Cl)c1,-15.2
2,COc1ccccc1N=Nc1c(C)[nH]n(-c2ccccc2)c1=O,18
3,O=C(Nc1cccc(C(F)(F)F)c1)c1cccnc1NCCc1ccccc1,7.2
4,O=C(O)C[C@]1(C(=O)Nc2ccc(F)cc2)CC(/C=C/c2ccccc2)=NO1,10.4
5,COc1cc(/C=C2\N=C(C)OC2=O)cc(OC)c1OC,15.8
6,O=c1ccc(-c2ccc(S(=O)(=O)Nc3ccccc3Cl)o2)n[nH]1,9.79
7,CCCCC(O)(CCN1CCOCC1)c1ccc(Cl)cc1.Cl (centres unmarked),-66.5
8,CC(C)(C)Sc1ccccc1S(=O)(=O)C(C)(C)C,-6.66
9,O=c1c2ccccc2nc(-c2cccs2)n1-c1cccc2ccccc12,5.68
10,Cc1cc(N(C)/N=C/c2ccccc2O)nc(-c2ccccc2O)n1,24.3
11,CC(C)(C)c1ccc(C(=O)N2CCNC(=O)C2CC(=O)Nc2ccc(F)cc2)cc1 (centres unmarked),13.9
12,CC(C)C[C@H](NC(=O)c1nc[nH]c1C(=O)NC1CC[NH2+]CC1)C(=O)OCc1ccccc1.[Cl-],15.7
13,CSc1nc(C)cc(C)c1S(=O)(=O)c1ccccc1C,7.41
14,CN(C)c1ccc(P(=O)(Nc2ccc([N+](=O)[O-])cc2)N2CCOCC2)c(NC(=O)c2cccs2)c1 (centres unmarked),16.9
15,CC(C)NC(=O)COC(=O)CNC(=O)c1cc(Cl)cc([N+](=O)[O-])c1,-0.0659
16,C/C(=N\NC(=O)C1(C)CC1(Br)Br)c1ccc(NC(=O)C2CCC2)cc1 (centres unmarked),7.51
17,COc1ccc(N=Nc2c(N)n[nH]c2N)cc1,11.9
18,COC(=O)c1sc(N)nc1C(C)(C)C,3.77
19,CC(=O)c1sc2c(c1OC(=O)c1ccc(Cl)cc1Cl)c(=O)n(-c1ccccc1)c(=S)n2-c1ccccc1,19.1
20,Cn1c(Cn2c(=O)sc3ccccc32)nnc1SCC(=O)N1CCCCCC1,-3.94
21,C#CCOc1c(Br)cc(/C=N\NC(=O)CN2CCOCC2)cc1OCC,-5.33
22,C[C@H](NC(=O)c1nc[nH]c1C(=O)N[C@H](C)c1ccccc1)C(=O)OC(C)(C)C,-4.07
23,COc1ccc(-c2nn(-c3ccccc3)cc2C(=O)N(C)C)cc1,-7.44
24,O=C(CNC(=O)c1ccco1)N/N=C/c1ccc(O)c([N+](=O)[O-])c1,29.1
25,CCN(CC)S(=O)(=O)c1cccc(C(=O)NC(Cc2c[nH]c3ccccc23)c2nnc3n2CCC3)c1 (centres unmarked),7.8
26,COc1ccc(CNC(=O)CN(Cc2ccccc2OC)C(=O)c2csnn2)cc1,-29
27,N#CC1=C(O)CCCn2c1nc1ccccc1c2=O,11.7

row,Structure (SMILES),"hERG current change (%, negative = inhibition) at 10uM [%]"
1,CC(C)(C)OC(=O)N1CCC(c2cc(=O)n3[nH]cc(C(=O)NC4CCCC4)c3n2)CC1,18.3
2,COC(=O)COc1ccc(S(=O)(=O)N2CCN(c3ccc(F)cc3)CC2)cc1,-25.5
3,COc1ccc(-c2cc3nc4n(c(=O)c3s2)CCCCC4)cc1,-5.46
4,CC1Nc2ccccc2C(=O)N1NC(=O)c1ccc(Br)cc1 (centres unmarked),-9.66
5,O=C(CCNS(=O)(=O)c1ccc2[nH]c(=O)oc2c1)Nc1cccc(Br)c1,13
6,Cc1ccc(S(=O)(=O)N2CCN(C(=O)C3CCCO3)CC2)cc1C (centres unmarked),15.6
7,O=C1CCCC(O)=C1Sc1ccccc1C(=O)O,9.53
8,COc1ccc(N(C(=O)c2snc(C(N)=O)c2N)C(C(=O)NC2CCCC2)c2cc(OC)ccc2OC)cc1 (centres unmarked),-14.4
9,O=C(Cc1ccccc1)N1CCCC1c1ccccc1 (centres unmarked),6.81
10,CC(NC(=O)c1ccc2nc[nH]c2c1)c1ccccc1 (centres unmarked),13.4
11,CCOc1ccccc1N(C(=O)CNC(=O)c1ccco1)C(C(=O)NC1CCCC1)c1cccnc1 (centres unmarked),-8.42
12,O=C(c1cc(S(=O)(=O)N2CCCCC2)ccc1F)N1CCC2(CC1)OCCO2,-19
13,COc1ccc(C(=O)Nc2ccccc2C(=O)Nc2ccccc2C(=O)O)cc1,5.66
14,Cc1noc(C)c1COC(=O)/C=C/c1ccccc1Cl,17.7
15,Cc1ccc2c(c1)C1CN(C)CCC1N2C(=O)CCCN1C(=O)c2cccc3cccc(c23)C1=O (centres unmarked),-57.4
16,CCN1CCN(c2ccc(S(=O)(=O)N3CCOCC3)cc2NC(=O)C(C)Oc2cccc(Cl)c2)CC1 (centres unmarked),-70.8
17,Cc1nc(SCc2ccc(Cl)cc2)ncc1C(=O)O,2.06
18,C#CCOCCOCCOCCNc1nc(N2CCN(C(=O)C([C@@H](C)CC)n3cc(C(N)COC(=O)C(F)(F)F)nn3)CC2)nc(N2CCN(C(=O)[C@H](Cc3ccc(O)cc3)n3cc(C(N)[C@H](C)CC)nn3)CC2)n1.Cl (some centres unmarked),25.6
19,O=C(O)Cn1c2c(c3ccccc31)CSc1ccc(Cl)cc1-2,23.3
20,O=c1c(-c2n[nH]c(=S)o2)cccn1Cc1ccccc1,21.2
21,O=C(O)c1ccc2c(c1)C(=O)N(c1cccc(C(=O)/C=C/c3ccccc3)c1)C2=O,25.9
22,CCOC(=O)C1CCN(S(=O)(=O)c2ccc(-c3cc(C(F)(F)F)n(C)n3)s2)CC1,-22.1
23,COc1ccc(CCNS(=O)(=O)c2ccc(C(=O)NCc3ccco3)cc2)cc1OC,-1.93
24,CCCOc1ncnc2c1[nH]c1ccc(OC)cc12,8.11
25,COc1ccc(/C=N/NC(=O)c2c(C)nc3ccc(Cl)cn23)cc1OC,4.79
26,COc1ccc(Cl)cc1NC(=O)C(C)OC(=O)Cn1cc(C(F)(F)F)ccc1=O (centres unmarked),-5.5
